Results published in patent US20250289788A1, “HALOALKYL SULFONANILIDE COMPOUND AND HERBICIDE CONTAINING THE SAME” (SDS BIOTECH K.K., priority 2022, published 2025).
Some entries share one result that the patent states for a list of compounds. For at least one compound, name, drawing or mass did not settle the structure.

Key:
Test in all cases: Test Example 1: herbicidal effect test using paddy field flooding treatment
Format in all cases: in vivo
Conditions in all cases: water surface application, 21 days after treatment
[1] = system: Schoenoplectiella juncoides (SJ)
[2] = system: Echinochloa crus-galli var. oryzicola (EC)
[3] = system: Monochoria vaginalis (MV)
Ammannia multiflora (AM) = system: Ammannia multiflora (AM)

Measured: herbicidal efficacy (degree (%) of suppression of growth of terrestrial part)

Cc1ccc2c(c1)C(=O)N(Cc1ccccc1NS(=O)(=O)C(F)(F)F)CC2 [Compound 3-23]
≥ 80%: [1]; dose 500 g a.i./ha | [2]; dose 500 g a.i./ha | [3]; dose 125 g a.i./ha | Ammannia multiflora (AM); dose 63 g a.i./ha

Cc1cc(F)c2c(c1)CCN(Cc1ccccc1NS(=O)(=O)C(F)(F)F)C2=O [Compound 3-58]
≥ 80%: [1]; dose 125 g a.i./ha | [2]; dose 250 g a.i./ha | [3]; dose 125 g a.i./ha | Ammannia multiflora (AM); dose 31 g a.i./ha

O=C1c2c(F)ccc(F)c2CCN1Cc1ccccc1N(C(=O)C1CC1)S(=O)(=O)C(F)(F)F [Compound 3-107]
≥ 80%: [1]; dose 63 g a.i./ha | [2]; dose 500 g a.i./ha | [3]; dose 31 g a.i./ha | Ammannia multiflora (AM); dose 16 g a.i./ha

CC1CN(Cc2ccccc2NS(=O)(=O)C(F)(F)F)C(=O)c2c(F)ccc(F)c21 (racemic) [Compound 7-9]
≥ 80%: [1]; dose 125 g a.i./ha | [2]; dose 500 g a.i./ha | [3]; dose 63 g a.i./ha | Ammannia multiflora (AM); dose 16 g a.i./ha

O=C1c2ccccc2CCN1Cc1cc(Br)ccc1NS(=O)(=O)C(F)(F)F [Compound 4-6]
≥ 80%: [1]; dose 250 g a.i./ha | [2]; dose 500 g a.i./ha | [3]; dose 250 g a.i./ha | Ammannia multiflora (AM); dose 63 g a.i./ha

CS(=O)(=O)N(c1ccccc1CN1CCc2ccccc2C1=O)S(=O)(=O)C(F)(F)F [Compound 3-246]
≥ 80%: [1]; dose 63 g a.i./ha | [2]; dose 125 g a.i./ha | [3]; dose 31 g a.i./ha | Ammannia multiflora (AM); dose 16 g a.i./ha

O=C1Cc2ccccc2CN1Cc1ccccc1NS(=O)(=O)C(F)(F)F [Compound 9-1]
≥ 80%: [1]; dose 125 g a.i./ha | [2]; dose 250 g a.i./ha | [3]; dose 250 g a.i./ha | Ammannia multiflora (AM); dose 125 g a.i./ha

CCC(C)OC(=O)N(c1ccccc1CN1CCc2c(F)ccc(F)c2C1=O)S(=O)(=O)C(F)(F)F (stereo not drawn) [Compound 3-165]
≥ 80%: [1]; dose 500 g a.i./ha | [2]; dose 500 g a.i./ha | [3]; dose 63 g a.i./ha | Ammannia multiflora (AM); dose 63 g a.i./ha

O=C1c2c(F)ccc(F)c2CCN1Cc1ccccc1N(C(=O)OCCO)S(=O)(=O)C(F)(F)F [Compound 3-227]
≥ 80%: [1]; dose 63 g a.i./ha | [2]; dose 250 g a.i./ha | [3]; dose 31 g a.i./ha | Ammannia multiflora (AM); dose 16 g a.i./ha

CCOC(=O)N(c1ccccc1CN1CCc2c(F)ccc(F)c2C1=O)S(=O)(=O)C(F)(F)F [Compound 3-149, N-[2-(N-ethoxycarbonyl-N-trifluoromethanesulfonyl)aminobenzyl]-5,8-difluoro-3,4-dihydroisoquinolin-1(2H)-one]
≥ 80%: [1]; dose 63 g a.i./ha | [2]; dose 125 g a.i./ha | [3]; dose 16 g a.i./ha | Ammannia multiflora (AM); dose 16 g a.i./ha

O=C1c2c(F)ccc(F)c2CCN1Cc1ccccc1N(C(=O)CCl)S(=O)(=O)C(F)(F)F [Compound 3-103]
≥ 80%: [1]; dose 500 g a.i./ha | [2]; dose 125 g a.i./ha | [3]; dose 63 g a.i./ha | Ammannia multiflora (AM); dose 16 g a.i./ha

O=C1c2c(F)ccc(F)c2CCN1Cc1ccccc1[N-]S(=O)(=O)C(F)(F)F.[Na+] [Compound 3-254]
≥ 80%: [1]; dose 63 g a.i./ha | [2]; dose 500 g a.i./ha | [3]; dose 63 g a.i./ha | Ammannia multiflora (AM); dose 16 g a.i./ha

O=C1c2c(F)ccc(F)c2CCN1Cc1ccccc1[N-]S(=O)(=O)C(F)(F)F.[K+] [Compound 3-255]
≥ 80%: [1]; dose 31 g a.i./ha | [2]; dose 125 g a.i./ha | [3]; dose 125 g a.i./ha | Ammannia multiflora (AM); dose 16 g a.i./ha

O=C1c2c(F)cccc2CCN1Cc1ccccc1N(C(=O)OCC(F)F)S(=O)(=O)C(F)(F)F [Compound 3-177]
≥ 80%: [1]; dose 500 g a.i./ha | [2]; dose 250 g a.i./ha | [3]; dose 63 g a.i./ha | Ammannia multiflora (AM); dose 16 g a.i./ha

O=C1c2ccccc2CCN1Cc1cc(Cl)ccc1NS(=O)(=O)C(F)(F)F [Compound 4-5]
≥ 80%: [1]; dose 250 g a.i./ha | [2]; dose 500 g a.i./ha | [3]; dose 250 g a.i./ha | Ammannia multiflora (AM); dose 63 g a.i./ha

O=C1c2c(F)ccc(F)c2CCN1Cc1ccccc1N(C(=O)OCC1CC1)S(=O)(=O)C(F)(F)F [Compound 3-212]
≥ 80%: [1]; dose 250 g a.i./ha | [2]; dose 500 g a.i./ha | [3]; dose 250 g a.i./ha | Ammannia multiflora (AM); dose 16 g a.i./ha

O=C1c2c(F)ccc(F)c2CCN1Cc1ccccc1N(C(=O)OCC1CO1)S(=O)(=O)C(F)(F)F (stereo not drawn) [Compound 3-214]
≥ 80%: [1]; dose 250 g a.i./ha | [2]; dose 250 g a.i./ha | [3]; dose 500 g a.i./ha | Ammannia multiflora (AM); dose 16 g a.i./ha

O=C1c2cccc(F)c2CCN1Cc1ccccc1NS(=O)(=O)C(F)(F)F [Compound 3-42]
≥ 80%: [1]; dose 125 g a.i./ha | [2]; dose 250 g a.i./ha | [3]; dose 125 g a.i./ha | Ammannia multiflora (AM); dose 16 g a.i./ha

O=C1c2c(F)ccc(F)c2CCN1Cc1ccccc1N(C(=O)OCC1CCCCO1)S(=O)(=O)C(F)(F)F (stereo not drawn) [Compound 3-222]
≥ 80%: [1]; dose 500 g a.i./ha | [2]; dose 250 g a.i./ha | [3]; dose 16 g a.i./ha | Ammannia multiflora (AM); dose 16 g a.i./ha

CC(OC(=O)N(c1ccccc1CN1CCc2c(F)ccc(F)c2C1=O)S(=O)(=O)C(F)(F)F)C(F)(F)F (stereo not drawn) [Compound 3-182]
≥ 80%: [1]; dose 125 g a.i./ha | [2]; dose 250 g a.i./ha | [3]; dose 63 g a.i./ha | Ammannia multiflora (AM); dose 16 g a.i./ha

O=C1c2cc(C(F)(F)F)ccc2CCN1Cc1ccccc1NS(=O)(=O)C(F)(F)F [Compound 3-27]
≥ 80%: [1]; dose 500 g a.i./ha | [2]; dose 500 g a.i./ha | [3]; dose 250 g a.i./ha | Ammannia multiflora (AM); dose 125 g a.i./ha

O=C1c2c(F)ccc(F)c2CCN1Cc1ccccc1N(C(=O)OC1CCS(=O)(=O)C1)S(=O)(=O)C(F)(F)F (stereo not drawn) [Compound 3-204]
≥ 80%: [1]; dose 63 g a.i./ha | [2]; dose 500 g a.i./ha | [3]; dose 63 g a.i./ha | Ammannia multiflora (AM); dose 16 g a.i./ha

O=C1c2c(F)cccc2CCN1Cc1ccccc1N(C(=O)C1CC1)S(=O)(=O)C(F)(F)F [Compound 3-104]
≥ 80%: [1]; dose 500 g a.i./ha | [2]; dose 500 g a.i./ha | [3]; dose 125 g a.i./ha | Ammannia multiflora (AM); dose 16 g a.i./ha

CS(=O)(=O)Oc1ccc(F)c2c1C(=O)N(Cc1ccccc1NS(=O)(=O)C(F)(F)F)CC2 [Compound 3-73]
≥ 80%: [1]; dose 125 g a.i./ha | [2]; dose 500 g a.i./ha | [3]; dose 125 g a.i./ha | Ammannia multiflora (AM); dose 250 g a.i./ha

O=C1c2c(F)ccc(F)c2CCN1Cc1ccccc1N(C(=O)OCC1COC1)S(=O)(=O)C(F)(F)F [Compound 3-219]
≥ 80%: [1]; dose 125 g a.i./ha | [2]; dose 250 g a.i./ha | [3]; dose 63 g a.i./ha | Ammannia multiflora (AM); dose 16 g a.i./ha

O=C1c2c(F)ccc(F)c2CCN1Cc1ccccc1N(C(=O)OCCF)S(=O)(=O)C(F)(F)F [Compound 3-175]
≥ 80%: [1]; dose 31 g a.i./ha | [2]; dose 125 g a.i./ha | [3]; dose 63 g a.i./ha | Ammannia multiflora (AM); dose 16 g a.i./ha

CCOC(=O)N(c1ccccc1CN1CCc2ccccc2C1=O)S(=O)(=O)C(F)(F)F [Compound 3-139]
≥ 80%: [1]; dose 500 g a.i./ha | [2]; dose 500 g a.i./ha | [3]; dose 250 g a.i./ha | Ammannia multiflora (AM); dose 63 g a.i./ha
